{"source": "paper PMC12136788", "binders": {"B1": {"name": "ENSG00000124766:be:win_1851|3pUTR|ENSG00000124766|bound_else_gene|NA|bound_elsewhere_windowed (ssRNA)", "RNA": "GGGAGUUCUACAGUCCGACGAUCAGAGACUUGAAGGAGUCUCCCCCUUCCUGCAUCACCACCUUGGUUUUGUUUUAUUUUGCUUCUUGGUCAAGAAAGGAGGGGAGAACCCAGCGCACCCCUCCCCCCCUUUUUUUAAACGCGCAACAGAGGAUUGAGCAUCA"}, "B2": {"name": "chr1:66363429:66363538:+|CDS|ENSG00000184588|unk|total|mutant (ssRNA)", "RNA": "GGGAGUUCUACAGUCCGACGAUCAGACCUCCUAAAGACAUUCAGAAUCUCAUCUGACACAUUUAUAACCUACAUGAUGACUUCCGAAGACCAUUACCAUUCUGACGUGGCAUAUCACAACAGCCUGCACGCUGCUGAUGCCGCCAACAGAGGAUUGAGCAUCA"}, "B3": {"name": "chr1:42696720:42696786:+|CDS|ENSG00000065978|msi1_unk|FALSE|overlapping (ssRNA)", "RNA": "GGGAGUUCUACAGUCCGACGAUCCCAGUUCAAGGCAGUAAAUAUGCAGCAGACCGUAACCAUUAUAGACGCUAUCCACGUCGUAGGGGUCCUCCACGCAAUUACCAGCAAAAUUACCAGAAUAGUGAGAGUGGGGAAAAGAACCAACAGAGGAUUGAGCAUCA"}, "B4": {"name": "chr2:96252317:96252350:-|3pUTR|ENSG00000135956|msi1_unk|total|mutant (ssRNA)", "RNA": "GGGAGUUCUACAGUCCGACGAUCGUGUCCCCUGCUGAGCUGAAAAGGAAAUGGAUUCCAAUCUCUUCCAACCUUUAAGGUGACCGACCGUUUGAGCAAGACUGGAGAAUGGACAACACUAUGAAGCUGUGGCCCGAAAGGGACCAACAGAGGAUUGAGCAUCA"}, "B5": {"name": "chrX:56565067:56565173:+|CDS|ENSG00000188021|unk|FALSE|unique (ssRNA)", "RNA": "GGGAGUUCUACAGUCCGACGAUCAGAAGCAUGAUGCAGUCGCUGAGCCAGAAUCCAGAUUUGGCUGCACAGAUGAUGCUGAAUAGCCCGCUGUUUACUGCAAAUCCUCAGCUGCAGGAGCAGAUGCGGCCACAGCUCCCAGCCCAACAGAGGAUUGAGCAUCA"}, "B6": {"name": "chr14:55188946:55189174:-|CDS|ENSG00000126787|unk|FALSE|unique (ssRNA)", "RNA": "GGGAGUUCUACAGUCCGACGAUCAUUGCUCAUAGGAAAUCACUGUCUCAGAAAGAAAAUAGACAUAAGGAAUACGAACGAAAUAGACACUUUGGUUUGAAAGAUGUAAACAUUCCAACCUUGGAAGGUAGAAUUCUUGUUGAACAACAGAGGAUUGAGCAUCA"}, "B7": {"name": "chr6:43186014:43186115:+|CDS|ENSG00000112659|msi1|FALSE|unique (ssRNA)", "RNA": "GGGAGUUCUACAGUCCGACGAUCCUGCUUUUCUCCUUGGUGAAGCGCUACCUUUGUGUCACGUCCCUCCUGGAUCAGCUGAAUAGCAGUCCAGAGCUGGGAGCUGGAGACCAAAGCUCCCCAUGUGCCACAAGAGAGAAAAGCCAACAGAGGAUUGAGCAUCA"}, "B8": {"name": "chr22:36489384:36489485:-|3pUTR|ENSG00000100350|msi1|total|mutant (ssRNA)", "RNA": "GGGAGUUCUACAGUCCGACGAUCGUGUCACUUGCCACACACUGCCUCAACCUCCCCGCCCCAUUUUCAGCAGGGUUUGGGCUCCGCUACAGAGCCCAAGAGGGUCAGCCCUGCUUAUCAUCACCGGCCCAGCAGGCUGAUCUCCAACAGAGGAUUGAGCAUCA"}, "B9": {"name": "chr11:46743636:46743700:-|3pUTR|ENSG00000175216|msi1_unk|total|mutant (ssRNA)", "RNA": "GGGAGUUCUACAGUCCGACGAUCUUGUAAAAUUGUCCUAAUCUUUCCCCGCUUUUUAACCGUUAAUAUCCGAAACUCUUUAACCGUUUUCCUUUCAGUUUGUGAGCUCUUCUCUGUCGCCCUGAAGGGUCACUGUAUUCUGUACAACAGAGGAUUGAGCAUCA"}, "B10": {"name": "chrX:12823584:12823685:+|3pUTR|ENSG00000101911|unk|FALSE|unique (ssRNA)", "RNA": "GGGAGUUCUACAGUCCGACGAUCUGACUUAAAGGUAAUCAUUUCAGCUAAGAUUAAAUUUAAAGCCUAAGAAUGUAUAGAGCUAGUUUUAAAAUAAUGAUCUCAGAUUUUUAAAAAGGAUAUAGGAACCUGCAUUGUCAUUCUCAACAGAGGAUUGAGCAUCA"}, "B11": {"name": "chr1:228098150:228098251:+|3pUTR|ENSG00000143761|msi1_unk|FALSE|overlapping (ssRNA)", "RNA": "GGGAGUUCUACAGUCCGACGAUCGCACCGUGCUGUAAAUGUGGCAGACGCAGCCUGCGGCCAGGCUUUUUAUUUAAUGUAAAUAGUUUUUGUUUCCAAUGAGGCAGUUUCUGGUACUCCUAUGCAAUAUUACUCAGCUUUUUUCAACAGAGGAUUGAGCAUCA"}, "B12": {"name": "chr13:52475664:52475769:+|3pUTR|ENSG00000136108|msi1|total|mutant (ssRNA)", "RNA": "GGGAGUUCUACAGUCCGACGAUCGCGUCCCUUGGACUGCCUGUUGAUUGAUGGAAAGUGUCUGCACUGACACUUUUCGUCAGCCGUCUGCCGUUUCGUGGCCUCUUUUGAUUAUAACUGGGGUCACCAAGAAGGUUUACUUAACAACAGAGGAUUGAGCAUCA"}, "B13": {"name": "chr12:122271799:122271900:-|3pUTR|ENSG00000130779|msi1|total|mutant (ssRNA)", "RNA": "GGGAGUUCUACAGUCCGACGAUCGUAUAAAACACCUAAAUAACCAAUCUACAAUCUCCCUUCACAAGUUUUUUUACUGUUUUCCGAUGAAUGUACGAUGAGAAAUUCAACGUUAAUAAUUCUGGAUUUUCUUAUCACAAAAAACAACAGAGGAUUGAGCAUCA"}, "B14": {"name": "chr15:65058426:65058617:-|CDS|ENSG00000103710|control|control|control (ssRNA)", "RNA": "GGGAGUUCUACAGUCCGACGAUCCUGAACUGGGCCCAUGCCUUCCUGGUGGUGUACAGCGUCGACAGCCGCCAGAGCUUUGAUAGCAGCAGCAGCUACCUGGAGCUGCUUGCCUUGCACGCGAAGGAGACACAGCGCAGCAUCCAACAGAGGAUUGAGCAUCA"}}, "note": "The list shows a part of the results.", "data": [{"target": "T1, UNK ZnF1-6 (called full-length) (human, UniProt Q9C0B0 30-357)", "T1 sequence": "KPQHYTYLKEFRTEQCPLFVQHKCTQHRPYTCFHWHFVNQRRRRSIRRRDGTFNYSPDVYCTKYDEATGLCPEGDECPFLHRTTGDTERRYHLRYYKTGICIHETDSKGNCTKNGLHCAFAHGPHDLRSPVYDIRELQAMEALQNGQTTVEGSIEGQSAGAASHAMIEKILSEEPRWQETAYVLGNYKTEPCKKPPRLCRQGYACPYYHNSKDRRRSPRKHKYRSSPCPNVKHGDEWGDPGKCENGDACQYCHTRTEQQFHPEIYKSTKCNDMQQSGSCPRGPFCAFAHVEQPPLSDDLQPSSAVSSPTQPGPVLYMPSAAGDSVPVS", "test": "nsRBNS (natural sequence RNA bind-n-seq); RBNS binding buffer (assumed for nsRBNS): 25 mM Tris pH 7.5, 150 mM KCl, 3 mM MgCl2, 0.01% Triton X-100, 500 ug/ml BSA, 20 U/ml SUPERase-In, 4 C; UNK is unkempt and MSI1 is Musashi-1; names of the RNAs are library labels; protein concentration not given here; high values mean tight binding", "units": {"binding signal": "enrichment R"}, "values": [{"binder": "B1", "binding signal": 0.704}, {"binder": "B2", "binding signal": 0.532}, {"binder": "B3", "binding signal": 0.804}, {"binder": "B4", "binding signal": 0.731}, {"binder": "B5", "binding signal": 0.515}, {"binder": "B6", "binding signal": 0.752}, {"binder": "B7", "binding signal": 0.496}, {"binder": "B8", "binding signal": 0.813}, {"binder": "B9", "binding signal": 0.543}, {"binder": "B10", "binding signal": 0.863}, {"binder": "B11", "binding signal": 1.39}, {"binder": "B12", "binding signal": 0.342}, {"binder": "B13", "binding signal": 0.721}, {"binder": "B14", "binding signal": 0.597}]}]}
